In PubChem BioAssay AID1240 (Sanford-Burnham Center for Chemical Genomics, 2008):
Screen size: about 50,000 compounds; about 800 (1.6%) showed an effect of 50% or more. The list shows a part of the results.

Target: Bcl-2-like protein 10 (Homo sapiens) (UniProt Q9HD36)
Assay: Phenotype converters, Bcl-B/TR3 peptide binding displacement, primary biochemical FP (AID 1240);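 also: 0% = Bcl-B with tracer peptide and DMSO and 100% = tracer peptide lacking Bcl-B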
Conditions: GST-Bcl-B / FITC-TR3 peptide fluorescence polarization; stronger effect = higher value; compound at 3.75 mg/L

Chain of UniProt Q9HD36 (Q9HD36 whole entry, looked up): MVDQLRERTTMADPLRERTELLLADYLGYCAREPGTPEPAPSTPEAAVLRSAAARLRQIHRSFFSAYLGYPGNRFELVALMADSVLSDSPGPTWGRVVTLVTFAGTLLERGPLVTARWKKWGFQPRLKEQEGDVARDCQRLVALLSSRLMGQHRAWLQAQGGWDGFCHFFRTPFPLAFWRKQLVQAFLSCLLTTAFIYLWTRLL

| SMILES | displacement [%] |
| --- | --- |
| Cc1oc2ccc(O)cc2c1-c1ccccc1 | 9.1 |
| CC(NC(=O)c1ccc([N+](=O)[O-])cc1)C1C2CC3CC(C2)CC1C3 (configuration not stated) | -2 |
| CCOC(=O)c1c(-c2ccccc2)oc2ccc(OC(=O)c3ccc(OC)c(OC)c3)cc12 | 8.8 |
| Cc1ccccc1NC(=O)C(=O)NCc1ccco1 | 11.3 |
| CCCCOC(=O)c1ccc(NC(=O)c2ccc(I)cc2)cc1 | 1.6 |
| CCOc1ccc2nc(SCC(=O)Nc3ccc(CC)cc3)sc2c1 | -14.2 |
| CC(=O)NC1=NC(=O)/C(=C\c2ccccc2Cl)S1 | 14 |
| O=C1C(=O)c2ccccc2C(O)=C1CC(=O)c1ccccc1 | 9 |
| CCc1ccc(NC(=O)C(=O)NCCN2CCN(C(=O)c3ccc(OC)cc3)CC2)cc1 | 3.6 |
| COc1cccc(NC(=O)c2cc([N+](=O)[O-])ccc2Cl)c1 | 0.5 |
| COc1ccc(CCN(C(=O)c2ccc(F)cc2)C2=CC3CCC(C2)N3C)cc1OC (configuration not stated) | -9.3 |
| CC(Cc1ccccc1)NC(=O)C1COc2ccccc2O1 (configuration not stated) | 8.2 |
| Cc1ccc(C(=O)NCC(=O)c2ccc(-c3ccccc3)cc2)cc1 | -0.2 |
| O=c1/c(=C\c2cccc(Oc3ccc(C(F)(F)F)cc3[N+](=O)[O-])c2)sc2nc3ccccc3n12 | 0.2 |
| O=C1C=C(NCCc2ccccc2)C2(CCCCC2)O1 | 0.4 |
| CCN(C(=O)c1ccc(NC(C)=O)cc1)c1ccccc1C | -1.9 |
| O=S1(=O)C[C@H](OS(=O)(=O)c2ccc(Cl)cc2)[C@@H](OS(=O)(=O)c2ccc(Cl)cc2)C1 | 10.8 |
| C/C(=N/NC(=O)c1c[nH]c2ccccc12)c1cccc(NC(=O)c2ccco2)c1 | -3.3 |
| CN(C)c1cccc(NC(=O)Cc2cccc3ccccc23)c1 | 8.2 |
| O=C(NCCOc1ccc(F)cc1)c1cccc2ccccc12 | 11 |
| O=C(/C=C/c1cccc([N+](=O)[O-])c1)N1CCN(c2cccc(Cl)c2)CC1 | -0.6 |
| CCOC(=O)c1c2c(n(Cc3ccccc3)c1C)C(=O)C(=O)c1ccc(Br)cc1-2 | -9.2 |
| CC(C)CNC(=O)CN(c1cccc(C(F)(F)F)c1)S(C)(=O)=O | -10.2 |

| SMILES | displacement [%] |
| --- | --- |
| O=C1NC(=S)S/C1=C\c1ccccc1OCc1ccc(Cl)cc1 | 11.4 |
| CC(=O)C1C(=O)c2ccccc2C1=Nc1ccc2cccnc2c1 (configuration not stated) | 4.2 |
| O=C(NCCCn1ccnc1)c1cc2c(ccc3ccccc32)oc1=O | 8.2 |
| O=C(NC1CCS(=O)(=O)C1)/C(=C\c1ccc(Br)cc1)NC(=O)c1ccccc1 (configuration not stated) | 1.9 |
| CC1=CC(C)(C)N(C(=O)COc2nc3ccccc3s2)c2ccccc21 | -3.5 |
| O=C(Nc1ccccc1)c1ccc(-n2cnnn2)cc1 | -6.9 |
| CCc1c(C)nc2c(OC)cccc2c1Cl | 11.4 |
| COc1cc(NC(=O)COc2ccc(C)cc2)ccc1NC(=O)c1ccco1 | 12.4 |
| CCc1ccc(N2C(=O)NC(=O)/C(=C\c3cc(Cl)c(OCC(=O)O)c(Cl)c3)C2=O)cc1 | 13.1 |
| O=C1/C(=C/c2ccccc2C(F)(F)F)SC(=S)N1c1ccccc1 | -6.5 |
| COc1ccccc1N1C(=O)NC(=O)/C(=C\c2ccc(O)c(O)c2)C1=O | 7.3 |
| CC12CCC(C(=O)N(c3nccs3)C1=O)C2(C)C (configuration not stated) | 8.8 |
| CC(NC(=O)COc1ccc(C=C2C(=O)NC(=O)NC2=O)cc1)c1ccccc1 (configuration not stated) | 7.3 |
| Cc1[nH]n(-c2ccccc2)c(=O)c1/C=N/n1c(C)nc2ccccc2c1=O | -20.1 |
| COC(=O)c1ccc(NC(=O)c2ccc(I)cc2)cc1 | -18 |
| COc1ccc(OC)c(N=C(C)C2=C(O)CSC2=O)c1 | 10.1 |
| O=[N+]([O-])c1cc2c(cc1/C=N/Nc1nc3nonc3nc1Nc1ccc(F)cc1)OCO2 | -4.7 |
| CC(=O)Nc1ccc(S(=O)(=O)N2CCC(Cc3ccccc3)CC2)cc1 | -3.3 |
| O=C(Nc1ccc(NC(=O)c2cc([N+](=O)[O-])ccc2Cl)cc1)c1ccc(Br)cc1 | 14.8 |
| O=C(O)c1cccc(NCCC(=O)c2ccccc2)c1 | 3.1 |
| COc1ccc(N2C(=O)CC(N3CCN(C(c4ccccc4)c4ccc(Cl)cc4)CC3)C2=O)cc1 (configuration not stated) | -10.6 |
| Cn1c(=O)c2c(nc(NCCOCCO)n2C)n(C)c1=O | -2.7 |
| COCCOC(=O)c1c(C)oc2ccc(OC(=O)c3cc4ccccc4o3)cc12 | 10.8 |

| SMILES | displacement [%] |
| --- | --- |
| CCN(CC)c1ccc(N2C(=O)/C(=C/c3cccc([N+](=O)[O-])c3)SC2=S)cc1 | -6.6 |
| COc1cccc(/C=N/NC(=O)c2ccc(=O)n(C)c2)c1OC | -1.8 |
| CCOc1ccc(N2C(=O)/C(=C/c3ccc(-c4ccc([N+](=O)[O-])cc4OC)o3)C(=O)NC2=S)cc1 | -6.5 |
| O=C(Nc1ccc(Cl)c(Cl)c1)c1cc([N+](=O)[O-])ccc1N1CCCCC1 | 14 |
| CCOc1ccccc1NC(=O)CN(c1ccc(C)cc1)S(=O)(=O)c1ccc(OC)c(OC)c1 | 17.6 |
| CCCC1=NN2C(=N)/C(=C/c3ccc(-c4ccc([N+](=O)[O-])cc4Br)o3)C(=O)N=C2S1 | 129 |
| O=C1/C(=C/c2ccc(I)o2)SC(=S)N1c1ccc([N+](=O)[O-])cc1 | 9.5 |
| CCCCc1c(C)nc2ccc(C(=O)O)cc2c1Cl | 1 |
| COc1cc(C2C(C#N)=C(N)SC(N)=C2C#N)ccc1O | -71.7 |
| COc1nc(N/N=C/c2ccccc2F)nc(N2CCCCC2)n1 | -3.1 |
| O=C(NC(=S)Nc1cc(C(F)(F)F)ccc1Cl)c1ccc(Cl)cc1 | -5.3 |
| N#CCCN(CCc1ccccc1)S(=O)(=O)c1cccc2nsnc12 | 3.3 |
| CP(C)(=O)CCP(=O)(c1ccccc1)c1ccccc1 | 4.4 |
| CS(=O)(=O)c1ccc2nc(NC(=O)CCc3ccccc3)sc2c1 | 6.9 |
| Cc1cc(Br)c(Nc2nc(NN)nc(N3CCOCC3)n2)cc1Cl | 3.3 |
| COc1ccc(S(=O)(=O)N(CCc2ccccc2)CC(=O)Nc2cc(OC)ccc2OC)cc1 | 15.4 |
| Nc1ncc(Cc2ccc(Cl)c(Cl)c2)s1 | 16.7 |
| COc1ccc(C(=O)Nc2sc(C(=O)OC(C)C)c(C)c2C(=O)OC(C)C)cc1OC | 7.2 |
| C=CCOc1c(Br)cc(C2C3=C(CC(C)(C)CC3=O)OC3=C2C(=O)CC(C)(C)C3)cc1OCC | 0.2 |
| O=C(Nc1ccc(S(=O)(=O)N2CCCC2)cc1)c1ccc(-c2ccccc2)cc1 | 5.3 |
| CN(C)CCOC(=O)C12CC3CC(C1)CC(C(=O)OCCN(C)C)(C3)C2 | 15.7 |
